The source of these data is PubChem BioAssay AID1745853 (National Center for Advancing Translational Sciences (NCATS), 2022).

Test in all cases: Primary Screen for Target Class Profiling of Small Molecule Inhibitors of Methyltransferases
The target in assay [1] is Glycine N-methyltransferase (Homo sapiens) (UniProt Q14749). The conditions noted are these: purified enzyme, MTase-Glo SAH luminescence; measured here: GNMT inhibition; at 40 µM; stronger effect = lower value. Summed up: (§1)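 Each enzyme was reacted with SAM and its substrate, with compounds tested once at 40 uM; SAH formed was read by MTase-Glo luminescence.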
Assay [2] deals with Guanidinoacetate N-methyltransferase (Homo sapiens) (UniProt Q14353). The conditions noted are these: purified enzyme, MTase-Glo SAH luminescence; measured here: GAMT inhibition; at 40 µM; stronger effect = lower value. Summed up:
as §1

Assay [3] concerns the target Histamine N-methyltransferase (Homo sapiens) (UniProt P50135). As to conditions: purified enzyme, MTase-Glo SAH luminescence; measured here: HNMT inhibition; at 40 µM; stronger effect = lower value. The method in brief:
as §1

Assay [4] addresses Nicotinamide N-methyltransferase (Homo sapiens) (UniProt P40261). As to conditions: purified enzyme, MTase-Glo SAH luminescence; measured here: NNMT inhibition; at 40 µM; stronger effect = lower value. The method in brief: as §1
Assay [5] has as its target Phenylethanolamine N-methyltransferase (Homo sapiens) (UniProt P11086). As to conditions: purified enzyme, MTase-Glo SAH luminescence; measured here: PNMT inhibition; at 40 µM; stronger effect = lower value. The method in brief:
as §1

This is one part of the list. Further columns of the screen follow, without active or inactive calls.
% is set by controls: 0 for no effect and ±100 for the full control effect.

Regarding `OC[C@H]1O[C@@H](n2cnc3c(NC4CCCCC4)ncnc32)[C@H](O)[C@@H]1O`, the activity change, negative = inhibition in assay [1] is -0.715%; in assay [2], 7.58%; in assay [3], 7.19%; in assay [4], -13.3%; in assay [5], -9.1%.
Consider `O=C1CCCN1CCCN1C(=O)[C@H]2CN(Cc3ccc(Cl)cc3)C[C@H]2C1=O`, for which the activity change, negative = inhibition in assay [1] is -1.65%; in assay [2] it was 0.608%; in assay [3] it was 0.437%; in assay [4] it was -3.68%; in assay [5], -1.65%.
Take `CC1(C)OC(=O)CC(O)C2(C)C1CC(=O)C1(C)C2C(O)CC2(C)C(c3ccoc3)OC(=O)C3OC321` (stereo not drawn): the activity change, negative = inhibition is 3.96% in assay [1]; 3.26% in assay [2]; 8.46% in assay [3]; -9.09% in assay [4]; 0.311% in assay [5].
Taken in the same sequence, the figures for `CC(=O)OC1C(O)C(C)=C(CCC(C)CC(=O)O)C2(C)CCCC(C)(C)C12` (stereo not drawn) were 2.57%, 7.11%, 12.5%, -6.98% and 5.29%.
Taken in the same sequence, the figures for `COc1cccc(N2CCN(S(=O)(=O)c3cc4[nH]c(=O)[nH]c4cc3C)CC2)c1` were -14.2%, -3.73%, -12.4%, -18.3% and -22.5%.
In the same order, the values of `CC1(C(=O)NC2CCCCCC2)Cn2nc(-c3cccs3)cc2C(=O)N1c1ccc(F)cc1` (stereo not drawn) are 1.22%, 4.67%, 1.67%, 3.57% and -0.396%.
As for `CC(C)(C)CC(=O)NC[C@H]1OC[C@@H](NC2CCCC2)[C@@H]1O`, the activity change, negative = inhibition in assay [1] is -4.26%; in assay [2], -14.1%; in assay [3], -1.41%; in assay [4] it was -7.77%; in assay [5], -6.96%.
On to `O=C1c2ccccc2CN1C1CCN(Cc2cccc3ccccc23)CC1`, for which the activity change, negative = inhibition is -8.46% in assay [1]; -3.98% in assay [2]; -4.86% in assay [3]; -8.13% in assay [4]; -3.47% in assay [5].
As to `CCS(=O)(=O)N1C[C@@H]2CN(Cc3ncc[nH]3)C[C@]2(C(=O)O)C1`, the activity change, negative = inhibition in assay [1] was -5.83%; in assay [2], -2.45%; in assay [3], -1.82%; in assay [4], -7.47%; in assay [5] it was -0.314%.
On to `COc1cc(NC(=O)c2cc(C3CC3)on2)c(OC)cc1Cl`, for which the activity change, negative = inhibition was 0.674% in assay [1]; 1.22% in assay [2]; 6.1% in assay [3]; -10.1% in assay [4]; -6.86% in assay [5].
Turning to `CCCn1c(=O)c2ccc(Cl)cc2n2c(=O)n(CC(=O)c3cccc(Cl)c3)nc12`, the activity change, negative = inhibition was 0.688% in assay [1]; 2.58% in assay [2]; 11.8% in assay [3]; -6.08% in assay [4]; 3.44% in assay [5].
`O=C(C1CCCC1)N1CC2(CCN(Cc3cccnc3)CC2)Cc2ccccc21`: the activity change, negative = inhibition in assay [1] was -6.41%; in assay [2] it was -1.85%; in assay [3] it was -13.3%; in assay [4] it was -20.6%; in assay [5], -2.37%.
Turning to `N[C@H]1Cc2ccccc2N(O)C1=O`, the activity change, negative = inhibition in assay [1] is -2.98%; in assay [2], 8.32%; in assay [3] it was -3.23%; in assay [4], -15.4%; in assay [5], -24%.
In the same order, the values of `COc1ccccc1C(=O)N1CCC2(CC1)C(=NC1CCCCC1)NC(=O)N2c1cccnc1` are -0.743%, -1.38%, 1.09%, -9.02% and -17.1%.
As to `CC1(NC(=O)C2CC2)CN(c2ccc(OC(F)(F)F)cc2)C1`, the activity change, negative = inhibition is 0.902% in assay [1]; 2.62% in assay [2]; 2.24% in assay [3]; -2.4% in assay [4]; 11.1% in assay [5].
Taken in the same sequence, the figures for `Cc1ccc2c(n1)Oc1ccc(C(C)C(=O)OCC(=O)N(C)C)cc1C2` (stereo not drawn) were -17.3%, -12.2%, 1.68%, -22.7% and -8.45%.
For the molecule `O=S(=O)(/N=C/c1c(O)ccc2ccccc12)c1cccs1`, the activity change, negative = inhibition in assay [2] is 2.07%; in assay [4], -6.74%; in assay [5], -25.5%.
Consider `COc1cccc(C(=O)N2CCCN(CCn3nc4n(c3=O)CCCC4)CC2)c1`, for which the activity change, negative = inhibition is -3.38% in assay [1]; -3.29% in assay [2]; -1.3% in assay [3]; -6.01% in assay [4]; -14% in assay [5].
As for `COc1cccc(CN2C(=O)c3cc4oc(C)cc4n3CC2(C)C(=O)NC2CCCCC2)c1` (stereo not drawn), the activity change, negative = inhibition is 0.233% in assay [1]; 2.28% in assay [2]; -1.03% in assay [3]; -4.32% in assay [4]; -1.48% in assay [5].
In the same order, the values of `CCCn1c(=O)c2ccc(Cl)cc2n2c(=O)n(CC(=O)Nc3ccc(C)c(C)c3)nc12` are 6.35%, 0%, 9.17%, -0.526% and 2.83%.
As for `CC(C)n1c(=O)c2ccc(C(=O)NC3CCCCC3)cc2n2c(=O)n(Cc3ccc(F)cc3)nc12`, the activity change, negative = inhibition in assay [1] was 6.46%; in assay [2], 0%; in assay [3], 8.84%; in assay [4], 6.26%; in assay [5], 4.89%.
With `CC1C(=O)Nc2ccc(S(=O)(=O)N3CCN(c4cccc(C(F)(F)F)c4)CC3)cc2NC1=O` (stereo not drawn), the activity change, negative = inhibition was 2.47% in assay [1]; 0% in assay [2]; 2.44% in assay [3]; -9.68% in assay [4]; -0.652% in assay [5].
Taken in the same sequence, the figures for `CC(C)OCCCN1C(=O)c2cc3occc3n2CC1(C)C(=O)NC1CCCCCC1` (stereo not drawn) were 0.714%, 0%, 3.54%, 5.01% and -2.85%.
In the same order, the values of `CC(C)CNC(=O)c1ccc2c(=O)n(C(C)C)c3nn(Cc4ccccc4)c(=O)n3c2c1` are 0.424%, 0%, 7.04%, 0.725% and 2.23%.
In the same order, the values of `O=c1[nH]c2ccc(S(=O)(=O)NCc3ccc(F)cc3)cc2[nH]1` are -1.65%, 1.62%, -3.6%, -7.96% and -10.1%.
Regarding `C=C1CCC2C(C)(C(=O)O)CCCC2(C)C1CC/C(C)=C\CO` (stereo not drawn), the activity change, negative = inhibition in assay [1] is 4.21%; in assay [2] it was -4.54%; in assay [3], 8.89%; in assay [4], -19.1%; in assay [5] it was 1.29%.
Regarding `O=C(Nc1cccnc1)c1cnc2c(c1)N(Cc1ccccc1)CCC2`, the activity change, negative = inhibition in assay [1] is -27.6%; in assay [2], -14.4%; in assay [3], -31.6%; in assay [4] it was -23.4%; in assay [5], -15.2%.
Taken in the same sequence, the figures for `CNc1nc(NCc2ccc(NS(C)(=O)=O)cc2Cl)cc(-c2ccccn2)n1` were -5.57%, -4.52%, -37.6%, -22.1% and -0.099%.
Taken in the same sequence, the figures for `CCc1ccc(S(=O)(=O)c2nnn3c2nc(NC2CCCC2)c2ccccc23)cc1` were 2.2%, 2.63%, 3.06%, -5.23% and 0.707%.
For `CCc1cc2c(cc3n2CC(C)(C(=O)NC2CCC(C)CC2)N(Cc2cccc(OC)c2)C3=O)s1` (stereo not drawn), the activity change, negative = inhibition in assay [1] is 4.54%; in assay [2] it was -4.91%; in assay [3] it was 7.53%; in assay [4], -1.34%; in assay [5], 0.383%.
In the same order, the values of `COc1ccc2c(c1)CN(C1CCN(C)CC1)CC[C@H]1COC(=O)N21` are -1.16%, -2.36%, 1.64%, -3.38% and -0.569%.
In the same order, the values of `CCc1cc2c(cc3n2CC(C)(C(=O)NC2CCCCCC2)N(Cc2ccc(F)cc2)C3=O)s1` (stereo not drawn) are 0.898%, 0.279%, 1.75%, 0.416% and -2.12%.
In the same order, the values of `Fc1ccc(OCc2nc(C3CCNCC3)no2)cc1` are -8.34%, -11.1%, -7.58%, -14.2% and -21.8%.
As to `O=C(Nc1nc2cc(C(F)(F)F)cc(NC3CC3)n2n1)c1cccnc1`, the activity change, negative = inhibition was 6.93% in assay [1]; 9.61% in assay [2]; 7.11% in assay [3]; -10.1% in assay [4]; 2.96% in assay [5].
In the same order, the values of `CCCCCCCC/C=C\CCCCCCCC(=O)NCCc1ccc(O)c(O)c1` are -12.8%, 14.5%, 7.25%, -18.1% and -3.52%.
In the same order, the values of `COc1cccc(Cn2nc3n(Cc4ccccc4)c(=O)c4ccccc4n3c2=O)c1` are -4.45%, 3.67%, 1.16%, -0.264% and -2.15%.
Taken in the same sequence, the figures for `CC1CCN(CC2CCCCCN2C(=O)Nc2ccc3c(c2)OCCO3)CC1` (stereo not drawn) were -2.83%, 0.098%, -2%, 0.023% and 16.5%.
`CCC/C=C/C=C/C1CC(O)C(O)C(=O)C1CO` (stereo not drawn): the activity change, negative = inhibition in assay [1] is 4.3%; in assay [2], 7.96%; in assay [3], 10.6%; in assay [4], -4.77%; in assay [5], 7.43%.
For the molecule `CCN1c2cc(C(=O)Nc3ccccc3OC)ccc2C(=O)N2CCCCCC21` (stereo not drawn), the activity change, negative = inhibition in assay [1] is -5.22%; in assay [2], -1.24%; in assay [3] it was -5.92%; in assay [4], -10.5%; in assay [5], 13.1%.
Taken in the same sequence, the figures for `CCCn1c(=O)c2ccc(C(=O)NC(C)C)cc2n2c(SCC(=O)c3ccccc3)nnc12` were 1.43%, 4.82%, -1.46%, -2.43% and 0.409%.
